From ChEMBL document CHEMBL4888484, “Replenishing the malaria drug discovery pipeline: Screening and hit evaluation of the MMV Hit Generation Library 1 (HGL1) against asexual blood stage Plasmodium falciparum ,using a nano luciferase reporter read-out” (2022) come the findings set out here.

Screen size: about 150,000 compounds; about 540 (0.36%) showed an effect of 50% or more. The list shows a part of the results.

This assay concerns Plasmodium falciparum. Briefly: Primary screen in NF54 nanoGlo assay, in single point, at 2uM, 72h; a lower Z score goes with more inhibition. It is filed as functional, Erythrocyte. To be noted: timepoint 72 hour.
For `Cc1c(Cl)cccc1NS(=O)(=O)c1cc(-c2nc(C(C)C)cs2)cs1`, the “% Inhibition” value is listed as -16% and the Z score turned out to be 2.32.
On to `Cc1oc(-n2c(C)ccc2C)c(C#N)c1C`, for which the “% Inhibition” value is -5% and the Z score is 0.73.
Consider `COc1ccc(CC(=O)N2CCc3nc(N4CCN(C)CC4)nc(Oc4ccc(F)cc4F)c3C2)cc1`, for which the “% Inhibition” value is given as -15% and the Z score stood at 2.48.
Regarding `Cc1cc(CN2CC[C@H](NC(=O)c3ccncc3)[C@@H](O)C2)ccc1F`, the “% Inhibition” value is -7% and the Z score is 0.95.
On to `CCOc1ccccc1CCNC(=O)c1cn2c(n1)CNCC2`, for which the “% Inhibition” value is listed as -18% and the Z score was determined as 2.28.
For `COc1cccc(C2C(C(=O)NC3CC4CCC3C4)c3ccccc3C(=O)N2C2CC2)c1` (stereo unspecified), the “% Inhibition” value is -4% and the Z score was found to be 0.53.
As to `Cc1cc(C(=O)CN2C(=O)NC3(CCCCCCC3)C2=O)c(C)n1-c1ccon1`, the “% Inhibition” value is -2% and the Z score amounted to 0.31.
Consider `Cc1cnccc1CN(C)Cc1noc(C2CCCC2)n1`, for which the “% Inhibition” value is listed as -1% and the Z score is reported as 0.14.
As for `O=c1cc2c(n[nH]1)-c1ccccc1OC2`, the “% Inhibition” value is -5% and the Z score is 0.71.
The like results for `COc1ccc(CN(C)Cc2c(C)noc2C)c(OC[C@@H](O)CN2CCCC2)c1` were, in that order, 7% and -1.18.
Take `CC(=O)Nc1nc(CN2CCc3c(ncn3C)C2)cs1`: the “% Inhibition” value is listed as 12% and the Z score was -1.71.
The corresponding values for `CCOC(=O)[C@H]1CCCN(C(=O)c2nn(-c3ccccc3F)c(=O)n(CC)c2=O)C1` are -11% and 1.52.
Regarding `Cc1ccc(NC(=O)[C@H]2CCCN(S(=O)(=O)c3ccc4c(c3)NC(=O)CO4)C2)c(Cl)c1`, the “% Inhibition” value is listed as -2% and the Z score is on record as 0.38.
As to `CC(C)CC(=O)Nc1ccc(-n2nc(OCc3ccc(F)cc3)nc2-c2cccc(F)c2)cc1`, the “% Inhibition” value was -4% and the Z score is reported as 0.67.
On to `O=C(c1cnc2ccc(F)cc2c1N1CCC(Cc2ccccc2)CC1)N1CCCC1`, for which the “% Inhibition” value amounted to 32% and the Z score is -4.13.
With `Cc1cc(CNc2ccc(Br)cc2CO)on1`, the “% Inhibition” value is listed as -3% and the Z score is given as 0.52.
For `CC(C)(C)n1ncn(CC(=O)N2CCc3ccccc3C2)c1=O`, the “% Inhibition” value is -19% and the Z score was found to be 1.59.
With `COc1cc2ccc3c(CCN(C)C(C)=O)cc(OC)c(OC)c3c2cc1OC`, the “% Inhibition” value came to 5% and the Z score is recorded as -0.6.
On to `C1CCN(Cc2n[nH]c3c2COCC3)C1`, for which the “% Inhibition” value was -5% and the Z score was determined as 0.51.
With `COC1CCCC1C1COCCN1Cc1cc(C(=O)O)sc1C` (stereo unspecified), the “% Inhibition” value was -4% and the Z score is given as 0.4.
The corresponding values for `COC(=O)[C@@H]1C[C@H](O)CCN1S(=O)(=O)c1cccc(OC)c1` are -5% and 0.91.
The corresponding values for `Cc1cc(C(=O)NCC2(c3ccccc3Cl)CC2)nc2nc(O)[nH]c(=O)c12` are -5% and 0.61.
The like results for `CC1=C(C)CN(S(=O)(=O)c2c[nH]c3ncncc23)CC1` were, in that order, -9% and 1.27.
In the case of `O=C(Nc1ccccc1)c1cccnc1NCc1ccccc1`, the “% Inhibition” value is -1% and the Z score is reported as 0.2.
`COc1cccc(C2=NN(C(=O)CN(CCN3CCOCC3)C(=O)CC(C)(C)C)[C@H](c3ccc4c(c3)OCO4)C2)c1`: the “% Inhibition” value is -26% and the Z score came out at 2.31.
Consider `CCCN1C(=O)COc2ccc(-c3noc(-c4cc(OC)c(OC)c(OC)c4)n3)cc21`, for which the “% Inhibition” value is recorded as 4% and the Z score is -0.48.
`O=C(NCCN1CCOCC1)c1nc(Cc2ccccc2)n(-c2ccccc2)n1`: the “% Inhibition” value was -11% and the Z score worked out at 1.47.
The like results for `COC(C(=O)Nc1ncc(C(F)(F)F)cc1Br)C1CCOC1` (stereo unspecified) were, in that order, -16% and 2.63.
The like results for `Cc1ccc(-c2ccc(CCC(=O)NCCc3ccccc3)o2)cc1C` were, in that order, -4% and 0.52.
As for `Cc1noc(C)c1CNc1cncc(OCC(C)C)n1`, the “% Inhibition” value was -6% and the Z score came to 0.52.
As to `CCOc1ncccc1CN[C@@H](C)c1ccc(C)s1`, the “% Inhibition” value was -6% and the Z score is 0.64.
On to `CCc1ccc(CN[C@@H](C)CCc2ccco2)cc1`, for which the “% Inhibition” value is on record as -2% and the Z score is listed as 0.27.
Take `CCCCN(CCCC)S(=O)(=O)c1c(C)nc(O)nc1O`: the “% Inhibition” value is recorded as -16% and the Z score worked out at 2.04.
As for `C[C@@H](CC(F)(F)F)Nc1cnn(C)c1`, the “% Inhibition” value turned out to be 1% and the Z score is reported as -0.08.
The like results for `O=C1C[C@H](c2nc(-c3cccs3)no2)CN1c1cn[nH]c1` were, in that order, -16% and 2.17.
In the case of `O=C(CCN1CCOC1=O)Nc1cc(Cl)c(Cl)cc1Cl`, the “% Inhibition” value is -31% and the Z score was determined as 3.58.
Regarding `Cn1ncc2c1CC(C(=O)NC1CCOC(C3CC3)C1)CC2` (stereo unspecified), the “% Inhibition” value was determined as 10% and the Z score is listed as -1.12.
For the compound `Cn1c(CCc2ccccc2NC(=O)CC2CCCCC2)nc2ccccc21`, the “% Inhibition” value is reported as -11% and the Z score worked out at 1.29.
`O=S(=O)(CCOCC1CC1)N1CCS(=O)(=O)C2(CCCCC2)C1`: the “% Inhibition” value was -5% and the Z score turned out to be 0.55.
With `O=C(Nc1ccccc1)N1CCO[C@@H](CN2CCN(c3ccccc3F)CC2)C1`, the “% Inhibition” value is given as -10% and the Z score was found to be 1.
For `CN(C(=O)CC1(C(=O)O)CCC1)[C@H]1CCOc2ccc(Br)cc21`, the “% Inhibition” value came to 1% and the Z score is reported as -0.26.
Consider `N#Cc1cccc(C(=O)N2CCN(C[C@H](O)C3CC3)CC2)c1`, for which the “% Inhibition” value is reported as -11% and the Z score is reported as 1.67.
The corresponding values for `COc1cc(F)ccc1-c1nc(N)nc(Nc2ccc(C)cc2)n1` are 1% and -0.19.

As a reminder, the % Inhibition is the change of the read-out against control, counted positive when it falls.
